PubChem BioAssay AID1347165 (National Center for Advancing Translational Sciences (NCATS), 2019)
Hit rate of the full screen: of about 220,000 compounds, about 5,700 (2.6%) were called active. Inconclusive means that the source gave no clear call. Such entries were picked first, then a sample of the others. The call rests on the fitted dose curve; in most records, active means well fitted inhibition curve with a large enough effect; inconclusive means small, poorly fitted or top-dose-only effect; inactive means no such curve, though single readings can be large or run the other way. Potencies of inconclusive entries are doubtful fits and often do not repeat.

Biological target: Lysine-specific demethylase 5B (Homo sapiens) (UniProt Q9UGL1)
Test: Primary screen for KDM5B Histone Demethylases FDH-coupled qHTS; further: nearly all actives have a fitted effect of over 70% in size
Settings: FDH-coupled NADH fluorescence (FDH is formaldehyde dehydrogenase); series mostly up to 57.7 µM
Method in brief: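 KDM5BΔAP (200 nM final) in 50 mM HEPES pH 7.5, 0.01% Tween-20 was preincubated 10 min at RT with compound over a concentration range. Substrate mix (H3K4me3 12.5 µM, α-KG 25 µM, Fe²⁺, ascorbate, NAD⁺, FDH) was added, and NADH fluorescence change over 30 min gave dose-response curves.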
Potency means the concentration at half of the fitted maximal effect; tags describe the fitted curve by direction and shape.

Sequence of UniProt Q9UGL1 (Q9UGL1 whole entry, looked up): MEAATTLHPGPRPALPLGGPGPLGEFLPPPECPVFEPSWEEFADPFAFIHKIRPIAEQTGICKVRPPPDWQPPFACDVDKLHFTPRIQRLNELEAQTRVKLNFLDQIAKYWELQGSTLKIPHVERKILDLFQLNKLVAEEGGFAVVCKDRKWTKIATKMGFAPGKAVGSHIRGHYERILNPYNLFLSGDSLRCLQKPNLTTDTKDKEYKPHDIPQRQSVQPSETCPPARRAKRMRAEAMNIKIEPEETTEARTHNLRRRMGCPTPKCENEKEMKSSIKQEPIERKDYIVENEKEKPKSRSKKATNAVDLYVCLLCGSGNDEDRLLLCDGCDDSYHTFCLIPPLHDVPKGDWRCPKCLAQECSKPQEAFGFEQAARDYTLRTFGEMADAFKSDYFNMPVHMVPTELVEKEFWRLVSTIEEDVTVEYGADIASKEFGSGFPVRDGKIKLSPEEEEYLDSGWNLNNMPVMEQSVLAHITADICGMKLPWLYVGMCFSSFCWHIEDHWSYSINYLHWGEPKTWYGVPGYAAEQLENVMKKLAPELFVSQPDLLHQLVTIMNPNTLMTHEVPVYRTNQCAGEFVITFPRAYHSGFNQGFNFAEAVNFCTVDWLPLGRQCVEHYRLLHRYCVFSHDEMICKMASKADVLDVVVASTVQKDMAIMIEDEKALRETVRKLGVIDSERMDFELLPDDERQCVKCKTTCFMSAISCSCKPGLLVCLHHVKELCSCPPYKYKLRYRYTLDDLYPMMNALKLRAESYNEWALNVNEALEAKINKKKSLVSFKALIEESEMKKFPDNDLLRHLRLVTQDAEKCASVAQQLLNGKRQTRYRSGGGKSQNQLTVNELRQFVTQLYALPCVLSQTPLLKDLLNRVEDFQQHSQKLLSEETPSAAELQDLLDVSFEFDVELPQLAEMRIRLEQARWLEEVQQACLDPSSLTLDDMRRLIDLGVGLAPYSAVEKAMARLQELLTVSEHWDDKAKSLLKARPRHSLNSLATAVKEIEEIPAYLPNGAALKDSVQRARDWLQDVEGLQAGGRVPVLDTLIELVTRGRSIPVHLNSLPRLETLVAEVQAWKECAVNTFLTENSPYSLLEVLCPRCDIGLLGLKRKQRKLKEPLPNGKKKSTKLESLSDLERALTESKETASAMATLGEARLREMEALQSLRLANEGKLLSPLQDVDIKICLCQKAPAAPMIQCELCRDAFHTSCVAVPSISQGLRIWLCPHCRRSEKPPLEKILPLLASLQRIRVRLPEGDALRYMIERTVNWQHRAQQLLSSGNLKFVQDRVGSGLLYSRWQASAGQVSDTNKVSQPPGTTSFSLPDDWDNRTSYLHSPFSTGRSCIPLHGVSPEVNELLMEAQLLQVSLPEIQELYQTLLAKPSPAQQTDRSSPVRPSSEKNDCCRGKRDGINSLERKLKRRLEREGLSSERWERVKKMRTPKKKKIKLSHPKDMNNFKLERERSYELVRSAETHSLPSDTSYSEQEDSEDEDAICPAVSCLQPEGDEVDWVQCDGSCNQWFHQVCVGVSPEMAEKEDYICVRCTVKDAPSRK

Row | Structure (SMILES) | Potency
1 | COCCNC(=O)CCc1ccc2c(c1)CN(C(=O)NC(C)C)CCO2 | inactive
2 | Cc1c(-c2ccccc2)oc2c(C(=O)OCC(=O)OC(C)(C)C)cccc2c1=O | inactive
3 | O=C(CN1CCN(S(=O)(=O)c2cc(Cl)ccc2Cl)CC1)Nc1cccc(F)c1 | inconclusive: 14.1 µM [inhibitor, partial curve, poor fit]
4 | Cc1noc(-c2ccn3c(CNC(=O)Cc4cccc(F)c4)nnc3c2)n1 | active: 28.2 µM
5 | COCc1c(C(=O)N[C@@H]2CN(c3ncccn3)C[C@H]2CN(C)C)noc1C | active: 28.2 µM
6 | COc1ccccc1NC(=O)Cn1c(-c2ccc(Cl)cc2)nc(C)c(CCO)c1=O | inconclusive: 20 µM [inhibitor, partial curve, poor fit]
7 | CN1CCC(NC[C@H]2O[C@@H](CO)[C@@H](O)[C@H]2N2CCN(c3ccc(F)cc3)CC2)CC1 | inconclusive: 25.1 µM [inhibitor, single point]
8 | C=CCn1cc2c3c(cccc31)[C@H](CC(C)C)N[C@H](C(=O)NCCCN1CCCC1=O)C2 | inconclusive: 35.5 µM [inhibitor, single point]
9 | CCCc1ccc(-c2nc(C3CCOC3)no2)cc1 (centres undefined) | inactive
10 | CCC(CC)C(=O)Nc1ccc(OCc2cc(=O)n3c4c(sc3n2)CCCC4)cc1 | inconclusive: 0.794 µM [inhibitor, partial curve, poor fit]
11 | CNc1ncc(C(=O)N2CCCC(CC=C(C)C)(C(=O)O)C2)cn1 (centres undefined) | inconclusive: 14.1 µM [inhibitor, partial curve, poor fit]
12 | COC(=O)c1sccc1NC(=O)N1CCCC1c1noc(COc2ccc(F)cc2)n1 (centres undefined) | active: 31.6 µM
13 | CCN(CC)C(=O)CSc1nc2c(cc1C#N)CCCC2 | inactive
14 | O=S(=O)(c1ccc(-n2cccn2)cc1)N1CCCC2(CCNC2)C1 (centres undefined) | inactive
15 | COc1ccc(NC(=O)N2C[C@@H]3C[C@H](C2)c2ccc(NS(=O)(=O)c4cccc(F)c4)c(=O)n2C3)cc1 | inconclusive: 28.2 µM [inhibitor, partial curve, poor fit]
16 | O=C(O)C(c1c[nH]c2ccccc12)N1CCN(CCNc2cc(=O)oc3ccccc23)CC1 (centres undefined) | inactive
17 | COc1ccccc1N1CCN(C(=O)c2ccc(CS(=O)c3ccccc3C)o2)CC1 (centres undefined) | inactive
18 | CC1(C)[C@H](Cc2cc(COc3ccccc3)on2)C[C@@H]1NC1CCOCC1 | inconclusive: 28.2 µM [inhibitor, single point]
19 | Cc1cccc(-c2cc(C(=O)NCCN3CCOCC3)c3ccccc3n2)c1 | inconclusive: 25.1 µM [inhibitor, single point]
